# Residue numbers refer to the chain shown, from its start. Results are given in words; binding and its absence hold for the method and conditions named. Binding seen in cells or lysates may run through a third protein. Some results given as binding are weak or reduced against the parent protein; the word gives no strength. For some of these results: Where a sequence is shown, tags or fusion partners need not be part of it.
# Chains of the proteins cited; added tags and fusions are not shown. Lines headed by an entry give the natural chain unless they say otherwise; changes in a name come on top. A line that says so, or that is headed by a name, gives the form on record, which may keep a tag or linker. Residues count along the entry.
# UniProt Q9EP73: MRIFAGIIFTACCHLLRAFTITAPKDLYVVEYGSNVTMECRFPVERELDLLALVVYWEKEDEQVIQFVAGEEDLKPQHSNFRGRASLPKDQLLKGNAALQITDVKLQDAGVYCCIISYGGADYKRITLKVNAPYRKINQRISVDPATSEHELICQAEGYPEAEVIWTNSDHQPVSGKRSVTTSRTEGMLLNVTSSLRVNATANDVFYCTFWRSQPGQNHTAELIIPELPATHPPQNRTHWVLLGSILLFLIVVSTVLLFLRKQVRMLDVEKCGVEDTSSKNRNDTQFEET
# Myc-PD-L1 3KR (K262R/K271R/K280R) (Q9EP73, form named): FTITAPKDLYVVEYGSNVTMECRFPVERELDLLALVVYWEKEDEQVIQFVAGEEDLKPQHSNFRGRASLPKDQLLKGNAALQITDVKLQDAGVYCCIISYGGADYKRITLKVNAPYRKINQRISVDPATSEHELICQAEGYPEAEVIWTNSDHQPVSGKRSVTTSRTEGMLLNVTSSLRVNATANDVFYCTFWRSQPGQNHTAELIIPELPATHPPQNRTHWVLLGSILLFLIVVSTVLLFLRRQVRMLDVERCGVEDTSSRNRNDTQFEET
# UniProt Q9NZQ7, residues 19-290: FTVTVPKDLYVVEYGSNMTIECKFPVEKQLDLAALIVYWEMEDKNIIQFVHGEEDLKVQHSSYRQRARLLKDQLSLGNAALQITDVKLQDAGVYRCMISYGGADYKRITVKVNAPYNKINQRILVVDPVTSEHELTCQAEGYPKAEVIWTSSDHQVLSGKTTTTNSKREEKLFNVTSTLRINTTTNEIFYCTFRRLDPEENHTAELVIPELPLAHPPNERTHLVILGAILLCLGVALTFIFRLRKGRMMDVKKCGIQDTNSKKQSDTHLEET
# Assays:
# [1] = molecular target: T1, OTUB2-Flag (wild-type) (not stated (human or mouse cDNA cloned)) (UniProt Q96DC9); assay: co-IP; 293T (HEK293T) cells cotransfected with tagged OTUB2 and PD-L1 constructs; Pierce IP lysis buffer; anti-Flag M2 affinity gel or anti-HA magnetic beads, or antibody with Dynabeads Protein A, 4 °C; immunoblot
# T1 sequence: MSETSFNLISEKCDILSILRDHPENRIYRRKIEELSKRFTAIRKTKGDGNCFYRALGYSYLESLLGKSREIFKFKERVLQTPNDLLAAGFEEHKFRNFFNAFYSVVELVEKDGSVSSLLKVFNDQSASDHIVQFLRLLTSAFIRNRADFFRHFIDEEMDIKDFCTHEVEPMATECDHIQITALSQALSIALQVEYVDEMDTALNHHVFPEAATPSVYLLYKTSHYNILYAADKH
# [2] = molecular target: T2, OTUB2-Flag C51S mutant (not stated (human or mouse cDNA cloned)) (UniProt Q96DC9); assay: as above
# T2 sequence: T1 sequence with C51S
# [3] = molecular target: T3, Myc-OTUB2 (not stated (human or mouse cDNA cloned)) (UniProt Q96DC9); assay: as above
# T3 sequence: T1 sequence
# [4] = molecular target: T4, endogenous OTUB2 (NCI-H358 cells) (human (endogenous in NCI-H358)) (UniProt Q96DC9); assay: proximity ligation; Duolink in situ PLA on fixed NCI-H358 cells with anti-OTUB2 and anti-PD-L1 antibodies
# T4 sequence: T1 sequence
# [5] = molecular target: T4, endogenous OTUB2 (NCI-H358 cells) (human (endogenous in NCI-H358)); assay: co-IP; endogenous proteins, NCI-H358 cell lysate, immunoprecipitation with an anti-OTUB2 antibody, Dynabeads Protein A; immunoblot
# [6] = molecular target: T5, OTUB2 44-234 (amino acids 44-234; OTU domain) (not stated (human or mouse cDNA cloned)) (UniProt Q96DC9); assay: co-IP; 293T (HEK293T) cells cotransfected with tagged OTUB2 and PD-L1 constructs; Pierce IP lysis buffer; anti-Flag M2 affinity gel or anti-HA magnetic beads, or antibody with Dynabeads Protein A, 4 °C; immunoblot
# T5 sequence: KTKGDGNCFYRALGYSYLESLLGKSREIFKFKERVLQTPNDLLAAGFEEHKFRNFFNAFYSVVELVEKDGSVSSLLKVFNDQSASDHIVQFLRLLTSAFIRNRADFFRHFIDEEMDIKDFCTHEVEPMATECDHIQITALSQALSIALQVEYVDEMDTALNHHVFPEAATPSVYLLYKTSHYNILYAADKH
# [7] = molecular target: T6, OTUB2 FL (lenti-HA vector) (not stated (human or mouse cDNA cloned)) (UniProt Q96DC9); assay: as above
# T6 sequence: T1 sequence
Substance,binding [1],binding [3],further results
PD-L1 (untagged construct) (from UniProt Q9EP73 19-290) (ligand),binds,,binding [2]: no binding
Myc-PD-L1 3KR (K262R/K271R/K280R) (from UniProt Q9EP73 19-290) (ligand),binds,,
endogenous PD-L1 (NCI-H358 cells) (from UniProt Q9NZQ7 19-290) (ligand),,,binding [4]: binds; binding [5]: binds
PD-L1-Flag (PD-L1 FL) (from UniProt Q9EP73 19-290) (ligand),,binds,binding [6]: binds; binding [7]: binds

# The next lines start with results.
binding [1],binding [3],Substance,further results
no binding,,Myc-PD-L1 ΔICD (amino acids 1-260) (from UniProt Q9EP73 19-260) (domain or fragment),
,no binding,"PD-L1ΔICD (amino acids 1-260), as used with Myc-OTUB2 in Fig. 2f (from UniProt Q9EP73 19-260) (domain or fragment)",
